Laboratory results reported in article PMC4336329 (PLoS ONE, 2015).
Screen size: about 310,000 compounds; about 2,200 (0.71%) showed an effect of 50% or more. The effect is printed as a negative number. Some of the results follow.

molecular target: human ether-à-go-go-related gene (hERG) potassium channel (human, UniProt Q12809); experiment: primary screen, population patch clamp on CHO cells stably expressing hERG
Sequence (Q12809 whole entry, looked up): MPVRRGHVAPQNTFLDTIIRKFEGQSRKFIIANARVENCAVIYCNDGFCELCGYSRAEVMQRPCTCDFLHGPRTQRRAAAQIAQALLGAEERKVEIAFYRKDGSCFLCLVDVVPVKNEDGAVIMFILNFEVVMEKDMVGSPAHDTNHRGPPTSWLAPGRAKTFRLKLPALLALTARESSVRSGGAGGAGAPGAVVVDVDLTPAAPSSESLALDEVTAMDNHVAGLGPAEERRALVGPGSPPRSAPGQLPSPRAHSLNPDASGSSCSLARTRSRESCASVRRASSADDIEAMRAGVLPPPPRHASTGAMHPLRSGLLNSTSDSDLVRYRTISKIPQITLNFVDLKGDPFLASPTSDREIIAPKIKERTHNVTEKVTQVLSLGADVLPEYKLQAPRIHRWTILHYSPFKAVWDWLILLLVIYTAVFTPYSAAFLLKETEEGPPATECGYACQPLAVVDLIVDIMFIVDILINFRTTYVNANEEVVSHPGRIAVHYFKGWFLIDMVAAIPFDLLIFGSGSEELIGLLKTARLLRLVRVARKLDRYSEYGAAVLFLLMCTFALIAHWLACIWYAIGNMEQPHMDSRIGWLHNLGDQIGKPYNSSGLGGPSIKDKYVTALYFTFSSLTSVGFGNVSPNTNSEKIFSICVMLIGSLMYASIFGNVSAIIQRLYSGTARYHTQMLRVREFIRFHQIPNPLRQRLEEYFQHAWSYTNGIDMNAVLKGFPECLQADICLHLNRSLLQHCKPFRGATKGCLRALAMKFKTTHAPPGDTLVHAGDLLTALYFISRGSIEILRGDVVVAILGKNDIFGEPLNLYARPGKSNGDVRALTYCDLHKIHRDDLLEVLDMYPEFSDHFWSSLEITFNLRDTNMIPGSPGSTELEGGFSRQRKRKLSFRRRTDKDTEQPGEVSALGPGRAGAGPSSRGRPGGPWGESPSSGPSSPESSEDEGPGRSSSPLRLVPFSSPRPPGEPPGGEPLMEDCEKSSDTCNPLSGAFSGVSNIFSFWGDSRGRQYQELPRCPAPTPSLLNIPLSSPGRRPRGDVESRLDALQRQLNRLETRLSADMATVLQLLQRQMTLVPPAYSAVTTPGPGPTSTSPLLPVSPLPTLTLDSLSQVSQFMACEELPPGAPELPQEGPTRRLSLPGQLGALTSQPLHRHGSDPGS

Structure (SMILES)	hERG current change (%, negative = inhibition) at 1uM
O=C(O)c1cc(S(=O)(=O)NC23CC4CC(CC(C4)C2)C3)ccc1Cl	14.4%
Cc1csc(NC(=O)CSc2ncnc3c2cnn3-c2ccccc2Cl)n1	6.38%
Cc1oc2ccc(OCc3ccc(Br)cc3)cc2c1C(=O)O	16.8%
COC(=O)[C@@]12CCCN1[C@H](c1ccc(-c3cccc(Cl)c3)c(OC)c1)[C@H]1C(=O)N(C)C(=O)[C@H]12.O=C(O)C(F)(F)F	-10.3%
COc1ccc(OCCCC(=O)Nc2ccc(S(=O)(=O)N3CCOCC3)cc2)cc1	8.46%
Cc1ccc(S(=O)(=O)N2CCOCC2)cc1C(=O)NCc1ccco1	5.09%
O=C(c1cc2c(s1)CCCC2)N1CCN(C(=O)C2CCCO2)CC1 (centres unmarked)	-8.18%
CC/C(=N\Nc1ccccc1)c1c(O)n(C)c(=O)n(C)c1=O	4.24%
Cc1ccnn1CCC(=O)N1CCCC(CCC(=O)NCc2ccccc2F)C1 (centres unmarked)	0.831%
O=S(=O)(c1ccc(Cl)cc1)N1CCN(c2ccccn2)CC1	5.51%
CCOC(=O)c1c(/N=C/c2cccc([N+](=O)[O-])c2O)sc2c1CCC2	11.1%
COc1ccc(CC(=O)N(C)C2CCCCC2)cc1S(=O)(=O)N1CCOCC1	10.6%
Cc1ccc(-c2nnc(N3CCN(C(=O)CN4CCOCC4)CC3)c3ccccc23)cc1	-9.34%
O=C(Nc1cnn(C23CC4CC(CC(C4)C2)C3)c1)c1cnn2cccnc12	10.4%
COC(=O)c1ccc(COC(=O)C23CC4CC(CC(O)(C4)C2)C3)o1	-1.45%
CC(C)COc1ccc(C/C(N)=N/n2cnnc2)cc1	7.1%
O=C(c1cc(F)ccc1F)C1CCCN(C(=O)CCCN2CCCCC2=O)C1 (centres unmarked)	-1.1%
Cn1c(O)c(C(=Nc2ccccc2)SCc2ccccc2Cl)c(=O)n(C)c1=O	17.8%
Cc1ccccc1C(=O)OCn1nnc2ccccc2c1=O	8.4%
CC(=O)c1ccc(NC(=S)NCC(c2ccco2)N2CCCC2)cc1 (centres unmarked)	19%
Nc1nc(SCC(=O)Nc2ccccc2Sc2ccccc2)n[nH]1	2.31%
Cc1ccn2c(NC(=O)C(C)(C)Oc3ccc(Cl)cc3)c(-c3cccs3)nc2c1	7.44%

Structure (SMILES)	hERG current change (%, negative = inhibition) at 1uM
COc1ccc(-c2nc(-c3ccc(Br)o3)no2)cc1	8.64%
CN(C)CCCN(C(=O)c1ccc(S(=O)(=O)N2CCc3ccccc32)cc1)c1nc2c(Cl)cccc2s1.Cl	-13.1%
COCCN1C(=O)N[C@@H](CCc2ccccc2)[C@@H](C(=O)OC)[C@H]1C	5.65%
O=C(CN1CCC(NC(=O)C2CCCCC2)CC1)NCc1ccco1	6.4%
Cc1ccccc1N=Cc1c(O)n(-c2nccs2)c(=O)c2ccccc12	7.42%
Cc1cc(=O)oc2c3c(cc(OCC(=O)NCC(=O)O)c12)OC(C)(C)CC3	17.9%
N#Cc1ccccc1NC(=O)Nc1ccc(Cl)cc1	7.31%
COc1ccc(Cl)cc1NC(=O)CN(C)C(=O)c1ccc2c(c1)CC(c1ccccc1)OC2=O (centres unmarked)	-14.2%
S=c1[nH]nc(-c2ccncc2)n1/N=C/c1cn(-c2ccccc2)nc1-c1ccccc1	8.66%
Nc1nonc1-n1nnc(C(=O)N/N=C/c2ccc3c(c2)OCO3)c1CSc1ccccc1	8.06%
CN(C)CCCN1C(=O)C2CCc3[nH]c4ccccc4c3C2C1=O (centres unmarked)	2.37%
CCCC(CCC)C(=O)NC1CCN(Cc2ccccc2)CC1.Cl	5.36%
CCCN(CCC)CCNC(=S)Nc1ccc2nc3n(c(=O)c2c1)CCCCC3	-1.32%
COc1ccc(C(CNC(=O)c2ccc(N3CCCC3=O)cc2)N(C)C)cc1 (centres unmarked)	8.28%
COc1ccc(C(CNC(=O)c2cc(C)on2)N(C)C)cc1 (centres unmarked)	15.4%
O=C(NC1CC1)c1ccc(CSCc2cccc(F)c2)o1	-2.48%
Cc1ccccc1OCC(=O)Nc1ccc2c(c1)OCO2	10.1%
O=C1c2cccc(OCc3ccc(F)cc3)c2CCN1Cc1ccc(F)cc1	11.8%
N/C(=N\OC(=O)Cc1ccccc1[N+](=O)[O-])c1ccncc1	2.69%
CCCC(CCC(=O)Nc1cccc([N+](=O)[O-])c1)C(=O)O (centres unmarked)	2.76%
CCOC(=O)[C@@H]1[C@H]2COc3ccc(Br)cc3[C@@H]2N2C(=O)N(c3ccc(Br)cc3)C(=O)[C@]12C	16%
COc1ccc(NC(=O)C(CC(C)C)NC(=O)C2CCC(C)CC2)c(OC)c1 (centres unmarked)	8.53%

Structure (SMILES)	hERG current change (%, negative = inhibition) at 1uM
O=C(NCCN1C(=O)CSC1=O)c1ccccc1	13.3%
CC(C)(C)NC(=O)c1oc2ccccc2c1COc1ccccc1	12.4%
FC(F)(F)c1ccc(/C=N/n2c(C3CCCCC3)n[nH]c2=S)cc1	10.9%
CCC(=O)Nc1ccc(NC(=O)CSc2nnc(C(C)C)n2C)cc1	12.1%
O=C1CC(N2CCCCC2)C(=O)N1c1ccccc1 (centres unmarked)	1.32%
CC(C)(C)c1cc[n+](-c2[nH]c(=O)sc2/C=N/N=C(\[O-])c2ccccc2)cc1	13.7%
CCn1c(C(c2ccccc2)c2ccccc2)n[nH]c1=S	10.3%
Nc1cc(Cl)nc(N/N=C/c2ccc([N+](=O)[O-])cc2)n1	1.47%
CC(=O)c1ccc(NC(=O)C2CCN(S(=O)(=O)c3cccc4cccnc34)CC2)cc1	16.6%
O=CN1CCN(C(=O)c2cccc3c2-c2ccccc2C3=O)CC1	10.9%
O=C(CSc1nnc2c(Cl)cc(C(F)(F)F)cn12)NCc1ccc(F)cc1	2.9%
CCOC(=O)N1C(=O)C2(CCCCC2)N(c2ccccc2Cl)C1=S	7.88%
CCOc1ccc(/C(O)=C2\C(=O)C(=O)N(CCOCCO)C2c2ccccc2OC)cc1 (centres unmarked)	6.84%
Cc1cccn2c(=O)c(/C=C(\C#N)C(=O)NCc3ccco3)c(N3CCCCCC3)nc12	-2.54%
CCOc1cc(/C=N\NC(=O)c2ccc(C)nc2)ccc1OC(=O)c1ccc(F)cc1	5.49%
CN(C)Cc1c(O)ccc2c(=O)c(-c3ccccc3Cl)coc12	13.4%
CCN(CC)S(=O)(=O)c1ccc(-c2nnc(SCC(=O)Nc3ccc4c(c3)OCO4)o2)cc1	7.5%
C/C(=N/NC(=O)c1ccco1)c1cccc(NC(=O)c2ccc(C)s2)c1	5.93%
CCc1ccc2oc(C(=O)NCc3ccc(S(N)(=O)=O)cc3)c(C)c2c1	20.2%
Cc1cc(C)nc(NS(=O)(=O)c2ccc(NC(=O)c3ccc4c(c3)OCCO4)cc2)n1	15.2%
COc1ccc(NC(=O)CN(C)C(=O)c2ccccc2Sc2ncnc3sc(C)c(C)c23)cc1	19.9%
Cc1cccc(OCC(=O)NCC(=O)N=Nc2c(O)[nH]c3ccc([N+](=O)[O-])cc23)c1	14.6%

Structure (SMILES)	hERG current change (%, negative = inhibition) at 1uM
CC(C)CNC(=O)/C(C#N)=C1\N=C(NC(=O)c2ccco2)c2ccccc21	1.07%
CC1CN(C(=O)c2cc(S(=O)(=O)N3CCCC3)c(Cl)cc2Cl)CC(C)O1 (centres unmarked)	12.6%
O=C(O)Cn1c(Cc2ccccc2)nc2ccccc21	1.01%
O=C(c1ccc2ncsc2c1)N1CCN(c2ccc(O)cc2)CC1	-0.0125%
CCc1cccc(C)c1NC(=O)CC(C)(C)CC(=O)O	15.5%
Cc1ccccc1C(=O)N1CCC(C(=O)Nc2ccc(C(C)C)cc2)CC1	-6.35%
COc1cccc(Nc2cc(N3CCOCC3)c3nonc3c2[N+](=O)[O-])c1	1.39%
COc1ccc(P2(=O)Nc3ccccc3N2)cc1	11.1%
CO/C([O-])=N/c1c[n+](-c2ccc(C)cc2)no1	-4.2%
CCC(=O)c1ccc(OCCN2CCOCC2)cc1	-10.3%
CCC1CO/C(=C(\C(Cl)=C(Cl)Cl)[N+](=O)[O-])N1 (centres unmarked)	4.56%
CC(=O)c1ccc(OCC(=O)NCC2(N3CCCCC3)CCCCC2)cc1	17.5%
O=C(CCCC(=O)N(c1ccc2c(c1)OCCO2)C(C(=O)NC1CCCCC1)c1ccc(Cl)cc1)Nc1ccccn1 (centres unmarked)	11.1%
Cn1nc(OCC(=O)O)cc1C(F)(F)F	11.1%
CCOC(=O)c1c(O)c2ccccc2oc1=O	10.3%
CCCNC(=O)c1ccccc1NC(=O)c1ccc(CSc2ccccc2)cc1	4.11%
COc1ccc(CCNC(=O)c2nnn(CC(=O)Nc3ccccc3)c2N)cc1OC	8.46%
COc1cc(Cl)c(CN2CCCC(CO)(Cc3ccccc3)C2)cc1OC (centres unmarked)	-2.72%
Cc1ccc(CN(C(=O)C(F)(F)F)C(C(=O)NC2CCCCC2)c2ccco2)cc1 (centres unmarked)	6.67%
CC1CCCC(NC(=O)Nc2cccs2)C1C (centres unmarked)	5.11%
